Measurements reported in PubChem BioAssay AID624417 (National Center for Advancing Translational Sciences (NCATS), 2012).
Several values for one entry are separate records, joined by “and”; a condition that tells them apart may be missing. Equal entries are not always repeated. The campaign covered roughly 410,000 compounds. About 6,400 (1.6%) were called active. This list was built around the results that the source calls inconclusive (neither active nor inactive); the mix of calls is not that of the screen. Calls follow the shape of the dose curve; as a rule, active = well fitted inhibition curve with a large enough effect; inconclusive = small, poorly fitted or top-dose-only effect; inactive = no such curve, though single readings can be large or run the other way. A potency beside an inconclusive call is a rough fit, not a confirmed value.

These molecules were tested against Glucagon-like peptide 1 receptor (Homo sapiens) (UniProt P43220) (assay: qHTS of GLP-1 Receptor Inverse Agonists (Inhibition Mode)). Details: HEK293 GLP-1R CRE-luciferase, luminescence, 24 h, GLP-1R form is constitutively active; activity change, negative = inhibition: at 38.3 µM (top of the series) unless noted.
How it was run: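 Stable HEK293 clone (constitutively active GLP-1R + cAMP-response luciferase); 200 cells/uL plated, 12 h pre-culture, compound 24 hr, 37 deg C/5% CO2; detection reagent 12 min RT; luminescence.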
% is scaled to controls: 0 for no effect and ±100 for the full control effect; potency is read from the fitted curve at half-maximal effect; tags tell the direction and shape of the fitted curve.
Also: nearly all actives have a fitted effect of over 55% in size.

Sequence of UniProt P43220 (P43220 whole entry, looked up): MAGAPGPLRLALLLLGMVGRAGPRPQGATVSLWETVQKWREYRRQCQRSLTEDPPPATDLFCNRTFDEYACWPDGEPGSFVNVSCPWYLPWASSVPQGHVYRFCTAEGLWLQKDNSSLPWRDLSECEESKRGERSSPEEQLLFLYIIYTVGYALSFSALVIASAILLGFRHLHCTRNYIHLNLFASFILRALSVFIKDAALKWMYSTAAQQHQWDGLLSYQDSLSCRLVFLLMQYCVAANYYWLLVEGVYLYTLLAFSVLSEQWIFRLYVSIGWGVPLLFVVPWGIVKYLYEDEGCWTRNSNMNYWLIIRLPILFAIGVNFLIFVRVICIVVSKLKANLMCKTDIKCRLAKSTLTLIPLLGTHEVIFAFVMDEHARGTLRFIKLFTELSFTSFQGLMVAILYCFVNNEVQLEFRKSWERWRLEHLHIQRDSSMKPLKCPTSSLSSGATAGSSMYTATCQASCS

Potency, active:
O=C(Cn1c2c(c(-c3ccccc3)cc1=O)CCCC2)N1CCCCCC1 12.6 µM, CC(C)CNC(=S)N1CCC(Cc2ccccc2)CC1 3.16 µM

Potency, inconclusive:
CCN(CC)c1ccc(NC(=O)/C=C/c2cc(Br)ccc2OC)cc1 5.62 µM [inhibitor, full curve, poor fit], O=[N+]([O-])c1cccnc1Oc1ccc(OCc2ccccc2)cc1 28.2 µM [inhibitor, single point], OC(c1ccc(Cl)cc1)c1ncc(-c2ccc(Oc3ccccc3)cc2)[nH]1 (stereo not given) 12.6 µM [inhibitor, partial curve, poor fit], CCNC(=S)N1CCN(CC(=O)Nc2ccc(Br)cc2)CC1 0.501 µM [inhibitor, full curve, poor fit], C=C(C)COc1ccc(-c2[nH]ncc2-c2ccccc2OC)c(O)c1 10 µM [inhibitor, partial curve, poor fit], COCCCC1CCN(Cc2nc(Cc3ccccc3Cl)no2)CC1 10 µM [inhibitor, partial curve], O=C(Nc1cccc(NC(=O)c2ccccc2Cl)c1)c1ccc(F)cc1 10 µM [inhibitor, partial curve, poor fit], Clc1cccc(CSc2nncn3c2cc2sccc23)c1 28.2 µM [inhibitor, single point], COc1ccc(NC(=S)NNC(=O)C2CC2c2ccc(C)cc2)cc1 (stereo not given) 15.8 µM [inhibitor, single point], CCOc1ccc2nc(SCCNS(=O)(=O)c3ccccc3)sc2c1 11.2 µM [inhibitor, single point], OC1(C(F)(F)F)CC(c2ccc3ccccc3c2)=NO1 (stereo not given) 12.6 µM [inhibitor, single point], CCOC(=O)C1=C(COC(=O)CCOc2ccc(C)cc2)NC(=O)NC1C (stereo not given) 28.2 µM [inhibitor, single point], O=C(OCC(=O)c1c[nH]c2ccccc12)c1cccc(O)c1 11.2 µM [inhibitor, single point], CCC1CSC(Nc2ccc(C(=O)/C=C/c3ccc(OC)c(OC)c3)cc2)=N1 (stereo not given) 28.2 µM [inhibitor, single point], CCN(CC)CCCNC(=O)Cn1nc(C)n2c(cc3sccc32)c1=O 15.8 µM [inhibitor, single point], O=C(CSc1c(F)c(F)cc(F)c1F)Nc1ccc(C2SCCS2)cc1 7.94 µM [inhibitor, partial curve, poor fit], CC(C)(C)c1ccc(S(=O)(=O)N(CCCN2CCOCC2)Cc2cccs2)cc1 20 µM [inhibitor, partial curve, poor fit] and 10 µM [inhibitor, partial curve, poor fit], Cc1cc(NC(=O)C(C)Oc2ccc(Cl)cc2Cl)n(-c2ccccc2)n1 (stereo not given) 10 µM [inhibitor, partial curve, poor fit], CC1Cc2ccccc2N1C(=O)C1CCCN(S(=O)(=O)c2cccc3cccnc23)C1 (stereo not given) 12.6 µM [inhibitor, partial curve, poor fit], CN(c1ccc(Cl)cc1)c1cc2c(c3c1ccn3C)C1CCC2O1 (stereo not given) 10 µM [inhibitor, single point], CCOC(=O)N1CCN(C2=C(NS(=O)(=O)c3ccc(Br)cc3)C(=O)c3ccccc3C2=O)CC1 31.6 µM [inhibitor, single point], CCN(C(=O)Cn1c(=O)oc2ccccc21)c1cccc(C)c1 28.2 µM [inhibitor, single point], COc1ccc(Nc2ncnc3scc(-c4ccc(OC)cc4)c23)cc1 3.16 µM [inhibitor, full curve], Cc1c(C(=O)Nc2ccc(F)cc2F)oc2ccc3c(c12)C(=O)CC(C)(C)O3 3.55 µM [inhibitor, partial curve, poor fit], CS(=O)(=O)c1nc(-c2ccc(F)cc2)cc(C(F)(F)F)n1 28.2 µM [inhibitor, single point], N#CC(c1ccc(O)cc1)c1ncc(C(F)(F)F)cc1Cl (stereo not given) 28.2 µM [inhibitor, single point], CC(C)Cn1c(N)c(C(=O)COC(=O)/C=C/c2cccs2)c(=O)n(C)c1=O 4.47 µM [inhibitor, full curve], CCOc1ccc(N=c2cc(-c3ccc(OC)cc3)oc3ccccc23)cc1 7.08 µM [inhibitor, partial curve, poor fit], COc1cccc(CC(=O)Nc2ccccc2N2CCCC2)c1 12.6 µM [inhibitor, partial curve], O=C(CSc1cccc[n+]1[O-])NC(=O)c1ccc(OC(F)F)cc1 12.6 µM [inhibitor, single point], O=S(=O)(Nc1cccc2ccccc12)c1cccc2nonc12 8.91 µM [inhibitor, single point], Fc1cccc(C2CC(c3cccc(Br)c3)Nc3nnnn32)c1 (stereo not given) 10 µM [inhibitor, partial curve, poor fit], COc1ccccc1CCNC(=O)C(=O)NCC1OCCN1S(=O)(=O)c1ccc(C)cc1 (stereo not given) 8.91 µM [inhibitor, partial curve], COC(=O)[C@]12CCCCC=C1N(Cc1cccc3ccccc13)C(=O)[C@H](CC(=O)NCc1cccc3ccccc13)C2 12.6 µM [inhibitor, partial curve, poor fit], CC(C)OCCCNc1sc(S(=O)(=O)c2ccccc2)nc1S(=O)(=O)c1ccc(Cl)cc1 7.94 µM [inhibitor, partial curve, poor fit], CC(C)N(Cc1ccccc1)CC(O)COc1ccc(S(=O)(=O)N2CCOCC2)cc1Cl (stereo not given) 12.6 µM [inhibitor, partial curve, poor fit], CCN(C(=O)COC(=O)/C=C/c1ccccc1)C1CCCCC1 11.2 µM [inhibitor, single point], Cc1cc(C)c2cc(C#N)c(N3CCCN(C(=O)c4cnccn4)CC3)nc2c1 3.55 µM [inhibitor, partial curve, poor fit], CCOc1ccc2c(c1)-c1c(ssc1=S)C(C)(C)N2C 10 µM [inhibitor, partial curve], CC1(C)CC2CC(C)(CN2C(=S)Nc2ccccc2F)C1 (stereo not given) 31.6 µM [inhibitor, single point], O=C(c1ccc(CS(=O)c2ccccc2Cl)o1)N1CCN(c2ccccc2)CC1 (stereo not given) 0.794 µM [inhibitor, full curve, poor fit], C=CCN(c1ccc(C(=O)Nc2ccc(C)c(C)c2)cc1)S(C)(=O)=O 28.2 µM [inhibitor, single point], CCCC1c2ccsc2CCN1C(=S)NC (stereo not given) 11.2 µM [inhibitor, partial curve, poor fit], COC(=O)C1C2C=CC3(CN(Cc4cccs4)C(=O)C13)O2 (stereo not given) 0.501 µM [inhibitor, full curve, poor fit], CCOC(=O)C(NC(=O)NCc1ccccc1)(OCC)C(F)(F)F (stereo not given) 28.2 µM [inhibitor, single point], O=C(NCCc1cccs1)c1ccc(Cn2c(SCc3ccccc3)nc3cccnc32)cc1 12.6 µM [inhibitor, single point], CCN(CC)S(=O)(=O)c1cccc(NC(=O)C(=O)c2c(-c3ccccc3)cc3ccccn23)c1 7.94 µM [inhibitor, partial curve, poor fit]

Activity change, negative = inhibition, inactive:
Cn1c(SCc2n[nH]c(=S)n2-c2ccccc2)nnc1-c1ccccc1 0%, COc1ccc(CN2C(=O)C(CC(=O)NCCCCc3ccccc3)CC(C(=O)N3CCOCC3)=C2C)cc1 (stereo not given) -15.1%, COC(=O)c1ccsc1NC(=O)CN1CCN(c2ncccn2)CC1 2.19%, CCCCc1ccc(NC(=O)Cn2nnc3sc4c(c3c2=O)CCC(C)C4)cc1 (stereo not given) 1.27%, COc1ccccc1-c1nc(C#N)c(NCCCn2ccnc2)o1 16.5%, Clc1ccc(CNc2ccccc2NCc2ccc(Cl)nc2)cn1 -13.7% [at 0.307 µM], Cc1ccc(-n2nc3c(c2NC(=O)c2cccs2)CSC3)cc1 -19.9%, Cc1c(CCC(=O)NCCCn2ccnc2)c(=O)oc2c(C)c3oc4c(c3cc12)CCCC4 -23.1%, O=C(Nc1nnc(-c2ccc(Cl)cc2)o1)Nc1ccccc1Cl 9.15%, O=C(NC(=S)Nc1ccc2c(c1)OCCO2)c1ccccc1F -24.6%, COc1ccc(CCNC(=O)c2cnc3ccc(C)cn3c2=O)cc1OC 32.7%, COc1ccc(NC(=O)CSc2nccn2-c2ccccc2)cc1 9.51%, O=S(=O)(c1cc(F)ccc1F)N1CCC2(CC1)OCCO2 7.38%, Oc1cc2c(cc1O)[C@H]1c3ccc(O)c(O)c3OC[C@@]1(O)C2 -19.5%, CCOc1ccccc1NC(=O)Cn1cnc2c1c(=O)n(C)c(=O)n2C 5.66%, CCOC(=O)c1c(C)n(C)c2ccc(OC)c([N+](=O)[O-])c12 6.48%
